Drawing on the RNAGym collection of RNA variant scans (doi:10.7554/elife.90254), this text covers self-cleavage for 112 variants.

The source gives no read counts; variants with many changes may rest on few reads.

B1: LINE1-mini (parent)
chain: GGCAGAGCUCAACACAGCGUGGCAAAGUGGCUGUGGCUAGACUGCC

Variants of B1 are the subject of the series. As to the kind of experiment: self-cleavage, relative activity (ratio to wild type); higher = more cleavage; in vitro, sequencing; the parent is a self-cleaving ribozyme.
On to GGCAGAGCUCAAAACAGCGUUGCAAAUUGGCUCUGGCUAGACUGCC, for which the self-cleavage is 0.02.
The result for GCCAUAGCCCAACACAGCGUGGCAAGGUGGCUGUGGCUAGACUGCC reads 0.02.
GGCACAGCUCAACACAGCGUUGCAAAGUGGCUGCGGCUAGACUGCA: the self-cleavage turned out to be 0.02.
Under GGCAGAGCACAACACAGCGUGGCAAAGUAGCUGUGGCUAGACUGGC stands 0.72; under GGCAGUGCGCUACACAGCUUGGCAAAGUGGCUGUGGCUAGACUGCC, 0.01; under GGCAGAGCUAAACACAGCGUGACAAAGUUGCUGUGGCUAGACUGCC, 0.02.
Under GGCAGAACACAACACAGCGUGGCCAAGUGGCUGUGGCUAGACUGCC stands 0.17.
The result for GGCAGAGCUCAACACAUCGUGGCAAAGUGGCUGUAGCUAGACCCCC reads 0.02; that for GGCAGAGCUCAACACAGCGUGGCAAAGUGGCUAAGGCCAGACUGCC, 0.03.
For the variant GUCGGAGCUCAACACAGCGUGGGAAAGUGGCUGUGGUUAGACUGCC, the self-cleavage was 0.06.
The result for GGCAGAACGCAACACAGCGUGCCAAAGUGGCUGUGGCUAGACUGCC reads 0.03.
The result for AGCAGUGCUCAACAUAGCGUGGUAAAGUGGCUGUGGCUAGACUGCC reads 0.02.
Under GGGAGAGCUCUAGACAGCGUGGCAAAGUGGCUGUGGCUAGACUGCC stands 0.02; under GGGAGAGCUCAACACAGCGGGGCAAAGUUGCUGUGGCUGGACUGCC, 0.42.
For the variant GGCAGAGAUCAACACCGCGUCUCAAUGUGGCUGUGGCUAGACUGCC, the self-cleavage is 0.04.
GGCAGAGCUCAACAUAGCGUGGAAAAGUGCUUGUGGCUAGACUGUC: the self-cleavage worked out at 0.12.
As for GGCAGAGCGCAACACAGCGUGGCAAAGUGGUUGUGGCUAGACUGUC, the self-cleavage was 0.
The result for GGCAGAGCUCAACACAGCGUGGCAAAGUGCCUGCCGCUAGACUGCC reads 0.09.
As for GGCAAAGCUCAACACAGCGUGGCAAAAUGGUUGUGGCUAGACUUCC, the self-cleavage came to 0.03.
Under GGCAGUGGUCAACACAGCGUGGCAAGGUGGCUAUGGCUAGAUUGCC stands 0.3.
Regarding GGCAAAGCUCAACACAGCGUGGCAAAGUGGCUGCGGUUACACUGCC, the self-cleavage worked out at 0.07.
Under GGCAGAGCUCGACACAGCGUGACAAAGUGGCUUUGGCUAGACUCCC stands 0.
For the variant GGCAGAGCUCAACACCGCGUAGCAAAGUGGCUGUAGCUAGGGUGCC, the self-cleavage amounted to 0.04.
Under GGCAGAGCUCUACACAUCUUGACAAAGUCACUGUGGCUAAACUUCC stands 0.01; under GGCAGAGCUCAACACAGCUUGGCAAAGUAGCUGUGGCUACACUGCG, 0.01; under GGCAGAGCACAACACAGCGUGGCAAACUGGCUGUGGCUAGACUGCG, 0.25.
Under GGCAGAGCUCAACACAGCGUUGCAAAGUGGCUGUUGCUAGAUUGAC stands 0.09.
Under GGCAGAAUUCAACACAGCGUGGCAAAGUGGCUCUGGCUAGACUGCC stands 0.36; under GGCAGAGCUCAACACAGCGCGGCAAAGUGGCUGUGGCUACACUGCG, 0.06; under GGCAGAGCUUAAAACAGCGUCGCAUAGUAGCUGUGGCUAGACUGCC, 0.01.
With GGAAGAGCUCAACACAGUGUGGCAAAGUGGCUGUGGCUAGAAUGCC, the self-cleavage amounted to 0.14.
GGCAGAUCUCAACACAGCGUGGCAAAGAGGCUGUGGCUAGACUGCG: the self-cleavage was 0.05.
The result for GUCAGAGCUCAACACAGCGUGGUAAAGUGGAUGUGGCUAGACUGCC reads 0.03; that for GGCAGCGUUCUACACAGCGUGGCAAAGUGGCUGUGCCUAGACUGGC, 0; that for GGCAGAGCUCGACAUAGCGUGGCAAAGUGGAUGUGGCUAGACUGCC, 0.03.
In the case of GGCAGAGCUCAACACAGCGUGGCCAAGUUUCUAUGUCUAGACUGCC, the self-cleavage came out at 0.12.
The result for GGCAGAGCUCAACACACCGUGGCGAAGUAACUGUGGCUAGACUGCC reads 0.34; that for GGCAGAGCUCAACACAGCGAGGUAAAGUGGCUGUAGCUAGACUGCC, 0.21.
The result for GGCAGAGUUCAACACAGCGUGGCAAAGUUACUGUGGCUAUACUGCC reads 0.25; that for GGCAGAGUUCAACACAACGUGGCAAAGUUGCUGUGGCUAGCCCGCC, 0.03.
Under GGCAGGGCUCAACAGAGCGUGGCAAAGUGGCUGUGGCUAAACGGCC stands 0.08.
On to GGCAGAGCUCAAUACAGCGUGGCAAAGUGACAGUGGCUAGACUGCC, for which the self-cleavage was found to be 0.29.
Under GGCAGACCUCAACACAGGGUGGCAAAGUGGCUGUGGCUUGACUGCC stands 0.05.
With GACAGAGCUCAACACUGCAUGGCAAAGUCGCUGUGGCAAUACUGCC, the self-cleavage was found to be 0.78.
The result for GGCCGGGUUCAACACAGCGUGGCAAAGUGGCUGUGGCUAGAUCACC reads 0.63; that for GGCAGAGCUCAAUAUAGCGGGACAUAGUGACUGUGGCUAGACUGCC, 0.03.
The result for GGCAGAGCUCAACACAGCGUGGCAAAUUAGCGGUGGCUAGACUGCC reads 0.75; that for AGCAGAGCUCAACCCAGCGUGGGAAAGUGGCUGUGGCUAGACUGCC, 0.07.
Turning to GGCAGAGAUCAACACAUCGUGGAAAAGUGGCUGUGGCUAGACUGCC, the self-cleavage was determined as 0.61.
Under GGCAGAGCUCAACACAGCGUGGCAAAGUGGCUUUGGAUAGACUACC stands 0.07.
For GGCAGACCUCAACACAGCGUGUCAAAGUGGCUGUGGCUAGACUGCU, the self-cleavage came to 0.05.
As to GGCAAAGCUCAACACAGCGUGGCAAAGUGGCAGUGACUAGACUGCC, the self-cleavage worked out at 0.09.
As to GUCAGAGCUCAACACAGCGUGGCAAAGUGGCGGUGGCGAGACUCCC, the self-cleavage is 0.02.
The result for GGCAUAGCUCAACACAGCUUGGCAAAGCGGCUGUGGCUAGACUGCC reads 0.3; that for GGCAGCGCUCAACAGAGCUUGGCAAAGUGGCUGUGGCUAGACUACC, 0.03; that for GGCAGAGCUUAACACAGCGAGGCAAAUUGGCUGUGGCUAGACUGCC, 0.1.
Under GGCAGAGAUCAACACAGCGAGGCAAAGUGGCUGUGGUUAGAUUGCC stands 0.
Under GGUAGAGCUCAACACAGCGUAGCAAAGUGGCUGUGGCUAGACUGCU stands 0.31; under GACAGAGCUUAACACAGCGUGACAAAGUGGCUGUGCCUACACUGCC, 0.05; under GGUAGGGCUCAACACAGCGUGGCAAAAUGGCUGUGGCUAGAAUGCC, 0.02.
As for GGCAGAGCUAAACACAGCGUGGCAAAGUGGCUGUUGGUAGACUGCC, the self-cleavage turned out to be 0.03.
For GGCGGAGCUCAACACACCGUAGCAAAGUGGCUGUGGCUAGACUGCC, the self-cleavage was found to be 0.54.
Under GCCAGAGUUUAACACCGAGUGGCGAAGUGGCUGUGGCUAGACUGCC stands 0.01; under GGCAGAGCUCAACACAGCGUGGCAAUAUGGCUGUCACUAGACGGCC, 0.01; under GGCAGAGCUCAACAUAGCGUCGCAAAGUGCCUGUGGCUAGCCUGCC, 0.03.
On to GGCGGAGCCCAACGCAGCGUGUCAAAGUGGCUGUGGCUAGACUGCC, for which the self-cleavage turned out to be 0.02.
Under CGCAGAACUUAACACAGCGUGGCGAAGUGGCUGUGGCUAGACUGCC stands 0; under GGCAGAGCACAACAGAGCGUUGCACAGUGGCUGUGGCUAGACUGCA, 0.32.
GGCAGAGCUCAACACAGCGUUGCAAAGUUGCUGUGGGUAGUCUGCC: the self-cleavage is 0.04.
Under GGCUGAGCUGAACACAGCGUGGCAAAGUGGCAGUGGCUAGACUGCC stands 0.03.
Under GGAAGAGCUCAACACAGCGUGUCAAAGCGGCUGGGGCUAGACUGAC stands 0.03; under GGCAGAGCUCAACACAACGUGACAAAGUGACUGUGGCUAGACUGCC, 0.45.
The result for CGCAAGGCUCACCACAGCGUGGCAAAGUGGCUGUGGCUAGACUGCC reads 0.01; that for UGCAGAGCUCAAGACAGCGUGGUUAAGUGGCUGUGGCUAGACCGCC, 0.03; that for GGCAUAGCUCAACACAGCGUGGCAAAGUGGCUGUGGCUAGACUACG, 0.12.
As to GGCAGAGCUCAACACAGGGUGUAAAAUUGGGUGCGGCUAGACUGCC, the self-cleavage came out at 0.15.
The result for GGCAGAGCUCAACACAGCGUUUCUGAAUGGCUGUGUCUAGACUGCC reads 0.1; that for CGCAGAGGUCAACAGAGCGUAGCAAAGUGGCUGUGGCUAGUCUGCC, 0.01; that for GGCAGCGCUAAACACAGCGUGGCAAAGUGGCUGUGGCUAGACUGGC, 0.05.
The result for GGCAGAGCUCAACACAGCGUGGCAAACAGGCUGUGGCUAGUCUGCA reads 0.93; that for GGCAGAGCGCAACACAGCGUGGCAAAGUGGCUGCGGUUAGACUGCC, 0.
The result for GGCAAAGCUCAACACUUGGUGGCAAAGUAGCUGUGGCUAGAUUGCC reads 0.02; that for GCCAGGUCUCAACACAGCGUGGCAAAGUGGCUGUGGCUAGACUGCC, 0.03.
For GGCAGAGCUCAACACAGCGUGGUAAAGUGGCUGUGGAAAGACUGCC, the self-cleavage worked out at 0.02.
Under GGCAGUGCUCAACACAGCGUGGCAAUGUGGAUGUGGCUAGACUGUC stands 0.16.
For the variant AGCAGAGCUCAACACAGCGUGGCAUAGUGGCUGUGCCGAGACUGCC, the self-cleavage is 0.04.
Under GGGAGACUUCAACACAGCGUGGCAAAGUGGCUGUGGCUAGACUUCG stands 0.08.
Under GGAAAAGCUCAUCACAGCGUGGCAAAGUGGCAGUGGCUAGAUUGCC stands 0.1; under GGCGGAGCUCAACACAGCGUGGCUAAGCUGCUGUGGCUAGACUGCC, 0.2; under GGCGGAGCUCAACACAGCGUGUCAAAGUGGCGGUGGCUAGACUGCC, 0.04.
The result for GGCAGAGCUUAACACAGCGUGGCAAAGUGGCUGUCGCUAGACUUCC reads 0.02; that for GGCAAAGCUCCACACAGCGUGGAAAAGUGGCUGUGGCUAGACUGCC, 0.01.
As for GGCAGAGCUCAACACAGCGUGGCACAGUGGCCGAGGCUAGACUGCC, the self-cleavage came out at 0.03.
For the variant GGCAGACAUCAACACAGCAAGGCAAAGUGGCUGUGGCUAGACUGCC, the self-cleavage was 0.11.
With GGCAGAUUUCAACACAGAGUGGCAAAGUGGCUGUGGCUAGACUGCC, the self-cleavage came out at 0.3.
The result for GGCAGAACUUAACACAGCGUGGCAACGUCGCUGGGGCUAGACUCCC reads 0.02.
As to GACACAGCUCAACACAGCGUGGCAUAGUGGCUGUGGCUAGACUACC, the self-cleavage worked out at 0.04.
The result for GGCAGAGCUCAACACAGCGUGGCGAGGUGGCUGUGGCUAGACUGCG reads 0.44; that for GGCAGAGGUCUACAAAGCGUCGCAAAGUGGCUGUGGCUAGACUGCC, 0.01.
Under GGCGGAGCUCAACCCAGCGUUGCAAAGUGGCUGUAGCUAGACUGCC stands 0.13; under GGCAGAGAUCAAGACAGCGUGGCAAAGAGGCUGUGGCUAGACUGCC, 0.92; under GGGAGAGCUCAACACAGCGUGGCGAACUGGCUGUGGCUAGACUGGC, 0.03.
Consider GGCAGAUCUCAACUCAGCGUGGCAAAGUGGCUGUGGCUAUACGGCC, for which the self-cleavage came out at 0.1.
As to GGCAGAGCUCACCACAGCGUUGCAAAGUGGCUGUAGCUAGACUGCC, the self-cleavage was determined as 0.02.
The result for GGUAGAGCUCAACACAGCGUGGCAAAUUGGCUGUGGCUAUACUGCC reads 0.03; that for GGCAGAGCUCAACACAGCCUGGCAAAGUUGCGGGGGCUAGACUGCC, 0.04; that for GGCAGAGCUCAACACAGCGUGGCAAAAUGGCUGUGGCAUGACUGUC, 1.51.
The result for GGCAGAGCUCAACACAGCGUGGCAAACAGGCUAUGGCUAGACUGCC reads 0.21; that for GGCAGAGCUCAACGCAUCGUGGCCAAGUGGCUGUGGCUAGACUGCU, 0.03.
Under GGCAGAGCUCAAUACAGCGUGGCAAAGUGUCUGGGGCUAGACUGCC stands 0.05.
On to GGCAGAUCCCAACACGGCUUGGCAUAGUGGAUGUGGCUAGACUGCC, for which the self-cleavage turned out to be 0.
The result for AGCAGAGCUCUACACAGCGUGACAAAGUGGCUGUGGCUAGACUGCA reads 0.03.
